Results published in the supplement of paper PMC10126150.
Values marked as one replicate rest on one cluster of the flow cell; about a third of the high ones do not repeat.

Test system: ATP
Test: switch fluorescence ratio, 500 uM ATP over buffer (Cy3 cluster intensity, sum of 5 cycles each) (fold (ratio)); higher = stronger signal-on switching upon ATP binding; sequences stand for … in TCGTCGGCAGCGTCAGATGTGTATAAGAGACAGTTTTTTTTTTTTTTTTTTTTTTTTT…TC
Conditions: aptamer strand: ATP DNA aptamer (quencher-CACCTGGGGGAGTATTGCGGAGGAAGG + anchor), 100 nM annealed; ATP concentration: 500 uM; one replicate
How it was run: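 Five buffer/ATP imaging cycles were run on Cy3-labelled switching-strand clusters on a modified Illumina MiSeq flow-cell, with NaOH stripping and re-annealing between cycles. In each cycle, clusters annealed to 100 nM quencher-labelled ATP aptamer were imaged in selection buffer, then after 15 min with 500 uM ATP at 22 °C. Per cluster, the fluorescence ratio is summed target-cycle over summed buffer-cycle Cy3 intensity, averaged per switch-domain sequence. Only clusters within 100-1000 RFU were kept.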
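Further: ATP exposure 15 min at 22 °C before imaging.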

## ATATGGATAG
  switch fluorescence ratio: 1

## GAGTTTTGT
  switch fluorescence ratio: 0.954

## TATTCTTTGC
  switch fluorescence ratio: 1.01

## AAGCTTTCGC
  switch fluorescence ratio: 0.995

## CCGCTTTTGG
  switch fluorescence ratio: 1.52

## CATAAGGATT
  switch fluorescence ratio: 0.976

## CAAACTTAAT
  switch fluorescence ratio: 1.01

## ATCATCACGC
  switch fluorescence ratio: 1.06

## GTGCAACGGA
  switch fluorescence ratio: 0.99

## TGTAACTTTG
  switch fluorescence ratio: 0.985

## TTTGATCG
  switch fluorescence ratio: 0.996

## ATGGGGTTT
  switch fluorescence ratio: 0.982

## AATCTTCACT
  switch fluorescence ratio: 1.03

## TCCGTCCATA
  switch fluorescence ratio: 1.34

## CGTATATTGG
  switch fluorescence ratio: 0.974

## GCTCAGCCAG
  switch fluorescence ratio: 1.11

## GAAAAACAAC
  switch fluorescence ratio: 1.1

## TTCCTGGGGT
  switch fluorescence ratio: 1

## TAGTACGTGT
  switch fluorescence ratio: 1.03

## TAAATAGATG
  switch fluorescence ratio: 0.981

## TTATTTTGAT
  switch fluorescence ratio: 0.931

## CAGCTAGGG
  switch fluorescence ratio: 1.03

## TGCGGATAGC
  switch fluorescence ratio: 1.04

## TGGTGGGGCC
  switch fluorescence ratio: 1.01

## CTGCTATAGC
  switch fluorescence ratio: 1.06

## AAGCAGATTG
  switch fluorescence ratio: 0.986

## ACACTCGCAT
  switch fluorescence ratio: 1.52

## TATGGAAACT
  switch fluorescence ratio: 1.1

## TTGTTACCTT
  switch fluorescence ratio: 1.11

## TATACTGGGT
  switch fluorescence ratio: 1.05

## TTTTCCCCAA
  switch fluorescence ratio: 1.43

## AGGCGGGCAA
  switch fluorescence ratio: 1

## ATTTATTAGG
  switch fluorescence ratio: 1.02

## AGGCAGAAAC
  switch fluorescence ratio: 1.07

## ATGCCTAACA
  switch fluorescence ratio: 0.945

## TGCATCTGGA
  switch fluorescence ratio: 1.04

## GGCAGTACTG
  switch fluorescence ratio: 1.08

## GAGGTTCGTG
  switch fluorescence ratio: 0.947

## GAGATGTGCT
  switch fluorescence ratio: 0.963

## ACCAGGTTGG
  switch fluorescence ratio: 1.04

## GTATATAGTG
  switch fluorescence ratio: 1.01

## AAAATTCAAT
  switch fluorescence ratio: 1

## TAAGGTGCCG
  switch fluorescence ratio: 0.934

## TGACGGTTTG
  switch fluorescence ratio: 1.02

## ACACGCTATT
  switch fluorescence ratio: 1.31

## ATCATTTGAA
  switch fluorescence ratio: 0.99

## TTGATAACC
  switch fluorescence ratio: 1.05

## AATGTCGAC
  switch fluorescence ratio: 0.981

## AGGGAAATAT
  switch fluorescence ratio: 1.04

## AAACCCAGCG
  switch fluorescence ratio: 1.2

## TACTCGGCCT
  switch fluorescence ratio: 1.11

## AGTACATCGC
  switch fluorescence ratio: 1.02

## TGTGATAGG
  switch fluorescence ratio: 0.989

## TAGACCGCCT
  switch fluorescence ratio: 0.978

## ATGCCTTCGA
  switch fluorescence ratio: 0.998

## GCAACTATTC
  switch fluorescence ratio: 1.09

## AGAGCTTTTA
  switch fluorescence ratio: 1.02

## GTCCAATTGT
  switch fluorescence ratio: 0.978

## TGCTCGTCGG
  switch fluorescence ratio: 1

## AGAGGACGGG
  switch fluorescence ratio: 0.997

## TATGCTTACG
  switch fluorescence ratio: 0.965

## CCCTGTGGTC
  switch fluorescence ratio: 1

## TTCCTCACAC
  switch fluorescence ratio: 1.17

## GTGTCTGAGA
  switch fluorescence ratio: 1.04

## ACCTAATGCG
  switch fluorescence ratio: 1.06

## GATATAGATA
  switch fluorescence ratio: 0.991

## CCGTGTTAGG
  switch fluorescence ratio: 0.986

## CTCCAGTACG
  switch fluorescence ratio: 1.43

## GATCGCCAGG
  switch fluorescence ratio: 1.03

## GATTACGTCT
  switch fluorescence ratio: 1.06

## GCCATACTCT
  switch fluorescence ratio: 1.45

## CGTTAAGTG
  switch fluorescence ratio: 0.977

## ATTTGGCACG
  switch fluorescence ratio: 0.997

## ACAGTCGG
  switch fluorescence ratio: 0.999

## TATTCCTAC
  switch fluorescence ratio: 1.43

## GTCTGAATTT
  switch fluorescence ratio: 0.994

## CACTCTTATT
  switch fluorescence ratio: 0.992

## AGGATCAGTG
  switch fluorescence ratio: 1.02

## CCCGCATGGG
  switch fluorescence ratio: 1.09

## ATCGCAACGA
  switch fluorescence ratio: 1.08

## CGATAAGGT
  switch fluorescence ratio: 0.998

## CATATTTTGC
  switch fluorescence ratio: 1.02

## TCGGCCCAAA
  switch fluorescence ratio: 0.988

## TCGACTTTTA
  switch fluorescence ratio: 1.1

## CGTGAAGGCA
  switch fluorescence ratio: 0.933

## TGGGCAAACC
  switch fluorescence ratio: 1.13

## GCCGTACACT
  switch fluorescence ratio: 0.989

## TATCAACTTT
  switch fluorescence ratio: 0.997

## TTGAGGTACA
  switch fluorescence ratio: 0.971

## CAGGGCAGTC
  switch fluorescence ratio: 1

## TCTTGAGAAT
  switch fluorescence ratio: 1.01

## CTCTGTGTGG
  switch fluorescence ratio: 1.02

## ACTTTTCATA
  switch fluorescence ratio: 1.01

## TGCGTAACGA
  switch fluorescence ratio: 0.992

## GCTTAGTCAC
  switch fluorescence ratio: 1.02

## GAGAGGTATC
  switch fluorescence ratio: 1.06

## CACTTTCAGT
  switch fluorescence ratio: 0.988

## CGCTAGCGAA
  switch fluorescence ratio: 0.968

## CCTTAAGTTA
  switch fluorescence ratio: 1.04

## CTTAGGGAAT
  switch fluorescence ratio: 0.959

## TGGCGTAATC
  switch fluorescence ratio: 1.17

## TTCGGTGCG
  switch fluorescence ratio: 0.962

## TACTTAGCGT
  switch fluorescence ratio: 1.01

## ACCCAATTC
  switch fluorescence ratio: 1.47

## AAAGCAAGGG
  switch fluorescence ratio: 1.3

## ATGTATGGTC
  switch fluorescence ratio: 0.993

## ACTGAGGGT
  switch fluorescence ratio: 1.04

## GTCGAGAAAG
  switch fluorescence ratio: 0.946

## ACATGATGTA
  switch fluorescence ratio: 1.02

## TGTAAGCTTG
  switch fluorescence ratio: 0.955

## GTTAAATGG
  switch fluorescence ratio: 1.02

## GGCGGCTTAA
  switch fluorescence ratio: 0.962

## TCTTCCGTAT
  switch fluorescence ratio: 1.68

## CTTACCTATT
  switch fluorescence ratio: 1.06

## AGCCAAATTG
  switch fluorescence ratio: 0.99

## CGAAGGACCT
  switch fluorescence ratio: 0.93

## TCAGATTTAT
  switch fluorescence ratio: 1

## CGCCATTTCG
  switch fluorescence ratio: 1.04

## AGGGCTCACG
  switch fluorescence ratio: 1.03

## CGTTTAAGCT
  switch fluorescence ratio: 1.01

## AAAAACACGG
  switch fluorescence ratio: 0.972

## TTTCGGCTTG
  switch fluorescence ratio: 0.992

## TTTGTTAACC
  switch fluorescence ratio: 1.01

## CGCATATCGC
  switch fluorescence ratio: 3.22

## AACCATCCGC
  switch fluorescence ratio: 2.55

## ATAAACGTCG
  switch fluorescence ratio: 0.968

## AACCATTTG
  switch fluorescence ratio: 1.02

## AAGAGTAACT
  switch fluorescence ratio: 1.02

## GGGTGTGTAT
  switch fluorescence ratio: 0.975

## CAGCGTGTGA
  switch fluorescence ratio: 1

## TCGTCGCGAT
  switch fluorescence ratio: 1.77

## TTGAGTTGGA
  switch fluorescence ratio: 0.978

## GCTAGTCCAG
  switch fluorescence ratio: 1.03

## AATTCTAATT
  switch fluorescence ratio: 0.986

## CACCTGGGGA
  switch fluorescence ratio: 1.01

## TGGCATATGA
  switch fluorescence ratio: 1.05

## CTTGTAACGA
  switch fluorescence ratio: 0.965

## TCATTGTATG
  switch fluorescence ratio: 1.02

## ACAATCAACA
  switch fluorescence ratio: 1.03

## TTTCTCACAC
  switch fluorescence ratio: 1.31

## CCTGAAGGCG
  switch fluorescence ratio: 0.987

## GTCGGGAGCA
  switch fluorescence ratio: 1.03

## AAGGGGAGA
  switch fluorescence ratio: 1.03

## CTTAGAAAAA
  switch fluorescence ratio: 0.998

## CCGGCAGCTA
  switch fluorescence ratio: 6.11

## AAGGGGGAA
  switch fluorescence ratio: 0.956

## CTTACCAGAA
  switch fluorescence ratio: 1.02

## ACTTTCTTCA
  switch fluorescence ratio: 1.05

## AAAGAATACA
  switch fluorescence ratio: 1.02

## CCTTACGCGT
  switch fluorescence ratio: 1.03

## GCCATTGTGA
  switch fluorescence ratio: 0.989

## AAGAGATGCG
  switch fluorescence ratio: 0.954

## CGATCCCGTC
  switch fluorescence ratio: 0.991

## TCCTTGTCCG
  switch fluorescence ratio: 1.09

## CGAAGCTACG
  switch fluorescence ratio: 1.75

## CCCCGGTAAG
  switch fluorescence ratio: 1.55

## CGTGCCCGAT
  switch fluorescence ratio: 0.969

## GGGCTTTTAC
  switch fluorescence ratio: 1.11

## GCTATATTT
  switch fluorescence ratio: 0.988

## TAGTTCCCAG
  switch fluorescence ratio: 1

## TGTGGGAGCA
  switch fluorescence ratio: 1.06

## GCATGGGAAT
  switch fluorescence ratio: 0.976

## CTGGACAACA
  switch fluorescence ratio: 1.06

## TAAACAGGGA
  switch fluorescence ratio: 1.01

## GAGCCCGGTA
  switch fluorescence ratio: 1.04

## TTCGGGAGTC
  switch fluorescence ratio: 1.02

## ACGGATCGGT
  switch fluorescence ratio: 0.975

## CGTACCTGCT
  switch fluorescence ratio: 0.949

## TTATTCACCG
  switch fluorescence ratio: 1.07

## ATACGCTTGG
  switch fluorescence ratio: 0.986

## CCAATGAGAC
  switch fluorescence ratio: 1.39

## TGGTCATAG
  switch fluorescence ratio: 1.03

## GCCGTAAGCT
  switch fluorescence ratio: 1.06

## TCAGGCGTTC
  switch fluorescence ratio: 1.01

## TGTGCGTCAC
  switch fluorescence ratio: 0.998

## CGGCTATATG
  switch fluorescence ratio: 1.03

## CACAAAGGGA
  switch fluorescence ratio: 0.991

## GTCAGCACCC
  switch fluorescence ratio: 1.08

## TGGATACCGT
  switch fluorescence ratio: 0.997

## TTGGTTGATT
  switch fluorescence ratio: 0.99

## GCAATCCTAG
  switch fluorescence ratio: 1.11

## CAGTTTTGTT
  switch fluorescence ratio: 0.992

## ATGCTGCCGG
  switch fluorescence ratio: 0.963

## CAGTCTTGTA
  switch fluorescence ratio: 1.01

## ATTCCGCCTT
  switch fluorescence ratio: 1.27

## TAATTACATA
  switch fluorescence ratio: 1.07

## TACATCAACA
  switch fluorescence ratio: 1.14

## CTGGGAGCAG
  switch fluorescence ratio: 1.03

## CAGGCAGATT
  switch fluorescence ratio: 1.02

## GGGATCCGAT
  switch fluorescence ratio: 1.01

## TAGCGTGCTG
  switch fluorescence ratio: 0.992

## TGGGACATAG
  switch fluorescence ratio: 1.01

## CCAGGTAGGC
  switch fluorescence ratio: 1.32

## ATTGAGAGAG
  switch fluorescence ratio: 0.988

## GGGGGTACAG
  switch fluorescence ratio: 1.04

## CGTGAGGCTA
  switch fluorescence ratio: 0.993

## TTAGGCTTG
  switch fluorescence ratio: 1.01

## TTTTCTTCTA
  switch fluorescence ratio: 1.02

## ACCAGCTTCC
  switch fluorescence ratio: 3.01

## ACCCAGTACG
  switch fluorescence ratio: 1.2

## ATGTTTACCG
  switch fluorescence ratio: 1.06
